# Several values for one entry are separate records, joined by “and”; a condition that tells them apart may be missing. Equal values may be shown once. The inconclusive results got no clear call from the source; some entries with a clear call stand among them for comparison. For part of these data: Where the call is inconclusive, the potency comes from a doubtful curve fit. Activity calls are given as the source filed them. Unless noted, the call rests on the fitted dose curve; in most records, active means well fitted curve in the direction sought with a large enough effect in the repeat runs; inconclusive means weak or mixed curves; inactive means no such curve, though single readings can be large; an effect the other way counts as inactive or inconclusive.
# Assays:
# [1] = qHTS assay to identify small molecule agonists of H2AX (AID 1224845; active means well fitted activation curve with a large enough effect in the signal ratio in the repeat runs, not every such curve was filed as active; inconclusive means weak or mixed curves; the % refers to the signal ratio; further: potency means the concentration at half of the fitted maximal effect); settings: CHO-K1 phospho-H2AX Ser139 HTRF, 3 h; activation (H2AX phosphorylation): at 154 µM (top of the series) unless noted
# Procedure, shortened: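 Wild-type CHO-K1 cells, plated overnight, exposed 3hr at 37C to 15 concentrations (0.76% DMSO final). Lysed, then HTRF anti-pH2AX (S139) cryptate and anti-H2AX-d2 antibodies, 24 hr room temperature; 665/620 nm emission read.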
# [2] = qHTS assay to identify small molecule agonists of the hypoxia (HIF-1) signaling pathway (AID 1224846; active means well fitted activation curve with a large enough effect in the signal ratio in the repeat runs, not every such curve was filed as active; inconclusive means weak or mixed curves; the % refers to the signal ratio; further: potency means the concentration at half of the fitted maximal effect; on activation: on the % scale 0 is the no-effect control and ±100 the full control effect); settings: HRE-bla ME-180 cells, beta-lactamase ratio, 17 h; activation: at 76.8 µM (top of the series) unless noted
# Procedure, shortened: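 Compounds from the Tox21 10K library, dissolved in DMSO, are tested for induction of a hypoxia response element–controlled beta-lactamase reporter in ME-180 cells. Exposure lasts 17 hrs at 37C after a 5 hr settling period, followed by CCF4-AM FRET substrate.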
# [3] = qHTS assay to identify small molecule antagonists of the estrogen related receptor (ERR) signaling pathway from Tox21 library (AID 1224848); further: potency means the concentration at half of the fitted maximal effect; nearly all actives have a fitted effect of over 50% in size
# Procedure, shortened: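 Compounds dissolved in DMSO are pin-transferred onto ERR reporter cells (2,000 per well) that have settled for 6 h at 37 C. Plates then incubate 18 h at 37 C before ONE-Glo luciferase reagent and a luminescence read 30 min later.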
# [4] = qHTS RealTime-Glo MT Cell Viability Assay in HEK293 cells - 32 hour (AID 1224868); further: potency means the concentration at half of the fitted maximal effect; nearly all actives have a fitted effect of over 50% in size
# Procedure, shortened: (§1)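 Tox21 10K qHTS, HEK293, 600 cells/well, RealTime-Glo reagent co-dispensed with cells; 5 h preincubation, compound by pintool, 37 C, luminescence at 0–40 h.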
# [5] = qHTS RealTime-Glo MT Cell Viability Assay in HEK293 cells - 16 hour (AID 1224872); further: potency means the concentration at half of the fitted maximal effect; nearly all actives have a fitted effect of over 50% in size
# Procedure, shortened: as §1
# [6] = qHTS RealTime-Glo MT Cell Viability Assay in HEK293 cells - 40 hour (AID 1224874); settings: RealTime-Glo luminescence; max response: stronger effect = lower value; further: potency means the concentration at half of the fitted maximal effect; nearly all actives have a fitted effect of over 50% in size
# Procedure, shortened: (§2)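 Real-time viability in HEK293: signal arises when living cells convert a prosubstrate for NanoLuc in the medium, so luminescence tracks viable cell number. Compound (23 nL, DMSO) added 5 h post-seeding; kinetic reads at 0–40 h, 37 C.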
# [7] = A CellTox Green Cytotoxicity Assay to monitor cytotoxicity in HepG2 cells - 24 hour (AID 1224878); further: nearly all actives have a fitted effect of over 45% in size; further: potency means the concentration at half of the fitted maximal effect; on Cytotoxicity: on the % scale 0 is the no-effect control and ±100 the full control effect
# Procedure, shortened: (§3)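 Cells and non-lytic dye reagent are dispensed together (600 HepG2 cells/well) and incubated 5 h before DMSO compound transfer. Kinetic fluorescence is then recorded in the same wells during 40 h at 37 C.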
# [8] = A CellTox Green Cytotoxicity Assay to monitor cytotoxicity in HepG2 cells - 40 hour (AID 1224879); further: nearly all actives have a fitted effect of over 40% in size; further: potency means the concentration at half of the fitted maximal effect
# Procedure, shortened: as §3
# [9] = qHTS assay to identify small molecule agonists of H2AX - cell viability counter screen (AID 1224847; calls by dose curve; further: potency means the concentration at half of the fitted maximal effect; nearly all actives have a fitted effect of over 30% in size)
# Procedure, shortened: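 Counter-screen for viability: CellTiter-Glo ATP luminescence read after 3 h compound treatment (15-point titration, 0.76% DMSO final) of CHO-K1 cells at 37C, with 30 min room-temperature reagent incubation.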
# [10] = qHTS RealTime-Glo MT Cell Viability Assay in HepG2 cells - 40 hour (AID 1224870)
# Procedure, shortened: (§4)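 HepG2 cells (600/well) mixed with RealTime-Glo MT reagent, settled 5 h at 37 C/5% CO2 before compound addition. Nonlytic NanoLuc luminescence from viable-cell prosubstrate reduction read repeatedly during 40 h treatment at 37 C.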
# [11] = qHTS RealTime-Glo MT Cell Viability Assay in HEK293 cells - 0 hour (AID 1224880); further: nearly all actives have a fitted effect of over 45% in size; further: potency means the concentration at half of the fitted maximal effect
# Procedure, shortened: as §2
# [12] = A CellTox Green Cytotoxicity Assay to monitor cytotoxicity in HEK293 cells - 24 hour (AID 1224875); further: potency means the concentration at half of the fitted maximal effect; nearly all actives have a fitted effect of over 45% in size
# Procedure, shortened: (§5)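 Cells (HEK293, 600/well) and dye reagent are dispensed together. After 5 h at 37 C, 23 nL compound is pinned in. Plates stay at 37 C for 40 h with fluorescence read at 0h, 8h, 16h, 24h, 32h and 40h.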
# [13] = A CellTox Green Cytotoxicity Assay to monitor cytotoxicity in HepG2 cells - 16 hour (AID 1224876); further: potency means the concentration at half of the fitted maximal effect; nearly all actives have a fitted effect of over 45% in size
# Procedure, shortened: as §3
# [14] = A CellTox Green Cytotoxicity Assay to monitor cytotoxicity in HEK293 cells - 40 hour (AID 1224871)
# Procedure, shortened: as §5
# [15] = qHTS RealTime-Glo MT Cell Viability Assay in HepG2 cells - 8 hour (AID 1224873); further: potency means the concentration at half of the fitted maximal effect; nearly all actives have a fitted effect of over 55% in size
# Procedure, shortened: as §4
# [16] = A CellTox Green Cytotoxicity Assay to monitor cytotoxicity in HEK293 cells - 32 hour (AID 1224881); further: potency means the concentration at half of the fitted maximal effect; nearly all actives have a fitted effect of over 40% in size
# Procedure, shortened: as §5
# [17] = qHTS assay to identify small molecule agonists of the estrogen related receptor (ERR) signaling pathway from Tox21 library (AID 1224849; calls by dose curve; further: on the % scale 0 is the no-effect control and ±100 the full control effect; nearly all actives have a fitted effect of over 15% in size); settings: ERR reporter cell line, ONE-Glo luciferase, 18 h; at 92.4 µM (top of the series)
# Procedure, shortened: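 Cells carrying the ERR reporter were plated and allowed to settle for 6 h, exposed to library compounds for 18 h at 37 C, then lysed with ONE-Glo and luminescence measured.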
# Tags describe the fitted curve by direction and shape or compound fluorescence and quenching.
structure (smiles),measurement,setting,value
CC(C)(C)CC(C)(C)c1ccccc1O,Potency,[1],inconclusive: 114 µM [activator]
same,Potency,[2],inconclusive: 55.2 µM
same,Potency,[3],"inconclusive: 24.5 µM [inhibitor, single point]"
same,Potency,[4],"inconclusive: 43.9 µM [cytotoxic, partial curve]"
same,Potency,[5],active: 39.1 µM
same,Potency,[6],"inconclusive: 39.1 µM [cytotoxic, partial curve]"
same,Potency,[7],active: 27.7 µM
same,Potency,[8],active: 34.9 µM
COC(=O)c1c(Cl)c(Cl)c(C(=O)OC)c(Cl)c1Cl,Potency,[1],"inconclusive: 101 µM [fluorescent, partial curve] and inconclusive: 89.8 µM [fluorescent, partial curve]"
same,Potency,[2],inactive and inconclusive: 61.6 µM
same,Potency,[9],"inconclusive: 101 µM [cytotoxic, single point] and inconclusive: 56.6 µM [cytotoxic]"
same,Potency,[4],"inconclusive: 43.6 µM [cytotoxic, partial curve, poor fit] and inconclusive: 21.9 µM [cytotoxic, partial curve]"
same,Potency,[10],"inconclusive: 30.9 µM [phenotype inactive, partial curve]"
same,Potency,[5],"inconclusive: 38.9 µM [cytotoxic, partial curve] and inconclusive: 17.4 µM [cytotoxic, full curve]"
same,Potency,[6],"inconclusive: 19.5 µM [cytotoxic, full curve]"
same,Potency,[7],"inconclusive: 0.0776 µM [activator, full curve, poor fit]"
same,Potency,[8],"inconclusive: 54.9 µM [activator, partial curve, poor fit] and inconclusive: 77.6 nM [activator, full curve, poor fit]"
same,Potency,[11],inactive
c1ccc2c(c1)-c1cccc3c1c-2cc1ccccc13,Potency,[1],"inconclusive: 80 µM [rising, partial curve, poor fit]"
same,Potency,[2],"inconclusive: 42.7 µM [fluorescent, partial curve] and inconclusive: 49 µM [fluorescent, partial curve]"
same,Potency,[9],active: 78.2 µM and active: 89.8 µM
same,Potency,[6],"inconclusive: 38.9 µM [rising, partial curve, poor fit]"
COC(=O)C1=C(C)NC(C)=C(C(=O)OCC(C)C)C1c1ccccc1[N+](=O)[O-] (stereo not given),Potency,[1],inconclusive: 50.5 µM [activator]
same,Potency,[2],"inconclusive: 49 µM [falling, partial curve]"
same,Potency,[3],active: 12.2 µM and active: 21.1 µM
same,Potency,[4],"inconclusive: 23.9 µM [cytotoxic, partial curve]"
same,Potency,[5],"inconclusive: 23.9 µM [cytotoxic, partial curve]"
same,Potency,[12],"inconclusive: 54.9 µM [activator, single point]"
same,Potency,[13],"inconclusive: 54.9 µM [activator, single point]"
same,Potency,[7],"inconclusive: 54.9 µM [activator, single point] and inactive"
same,Potency,[8],"inconclusive: 54.9 µM [activator, single point]"
On1ccccc1=S,Potency,[1],"inconclusive: 125 µM [falling, single point]"
same,Potency,[2],"inconclusive: 0.385 µM [falling, full curve]"
same,Potency,[9],"inconclusive: 0.706 µM [rising, full curve]"
same,Potency,[4],active: 4.32 µM
same,Potency,[14],active: 1.09 µM
same,Potency,[5],active: 3.85 µM
same,Potency,[15],"inconclusive: 0.61 µM [falling, full curve]"
same,Potency,[12],"inconclusive: 19.3 µM [activator, partial curve, poor fit]"
same,Potency,[7],active: 0.432 µM
Brc1ccccc1-c1ccccc1,Potency,[1],inconclusive: 95.3 µM [activator]
same,Potency,[2],"inconclusive: 58.3 µM [falling, single point]"
same,Potency,[9],inconclusive: 120 µM [cytotoxic]
same,Potency,[14],inconclusive: 20.7 µM [activator]
same,Potency,[5],"inconclusive: 32.8 µM [cytotoxic, partial curve, poor fit]"
same,Potency,[12],"inconclusive: 17.4 µM [activator, partial curve]"
Cc1cc(F)ccc1-c1cc(N2CC[C@@H](O)[C@H]2CO)ncc1N(C)C(=O)C(C)(C)c1cc(C(F)(F)F)cc(C(F)(F)F)c1,Potency,[1],active: 39.5 µM
same,Potency,[2],"inconclusive: 38.3 µM [falling, partial curve]"
same,Potency,[4],active: 17.1 µM
same,Potency,[12],"inconclusive: 38.3 µM [activator, single point]"
same,Potency,[7],active: 38.3 µM
same,Potency,[11],"inconclusive: 21.5 µM [falling, partial curve]"
same,Potency,[16],"inconclusive: 43 µM [activator, single point]"
CCCC(=O)c1cc(O)c(O)cc1O,Potency,[1],inconclusive: 28.4 µM
same,Potency,[9],"inconclusive: 1.79 µM [cytotoxic, single point]"
same,Potency,[3],inconclusive: 54.5 µM [inhibitor]
same,"activity change, positive = activation",[17],inconclusive: -4.29%
same,Potency,[13],"inconclusive: 19.5 µM [activator, single point]"
same,Potency,[7],"inconclusive: 21.9 µM [activator, single point]"
same,Potency,[8],inactive

# Reference: PubChem BioAssay (Tox21)
